Data reported in PubChem BioAssay AID1745845 (National Center for Advancing Translational Sciences (NCATS), 2022).
In all, about 360,000 compounds went through this assay and about 2,600 (0.72%) were called active. The inconclusive results got no clear call from the source; some entries with a clear call stand among them for comparison. The call rests on the fitted dose curve; in most records, active means well fitted inhibition curve with a large enough effect; inconclusive means small, poorly fitted or top-dose-only effect; inactive means no such curve, though single readings can be large or run the other way. A potency beside an inconclusive call is a rough fit, not a confirmed value.

Test: Primary qHTS for Inhibitors of ATXN expression; further: nearly all actives have a fitted effect of over 55% in size
Conditions: HEK-293 ATXN2-luciferase reporter, luminescence, 24 h; series mostly up to 57 µM
Summary of the method: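 ATXN2-luciferase reporter cells (luciferase flanked by upstream and downstream ATXN2 gene portions) were treated 24 h at 37 °C with compounds at up to 57 uM. SteadyGlo luminescence gave expression; GF-AFC fluorescence gave viability.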
Potency means the concentration at half of the fitted maximal effect; tags describe the fitted curve by direction and shape.

Potency, active:
C[C@@H](c1ccccc1)N1C[C@@H](COCc2ccccc2)Oc2cc(N3CC[C@@H](N(C)C)C3)ccc2S1(=O)=O 28.2 µM
CC(=O)OCC(=O)[C@@]1(O)[C@H](C)C[C@H]2[C@@H]3C=C(C)C4=Cc5c(cnn5-c5ccccc5)C[C@]4(C)[C@@H]3[C@@H](O)C[C@@]21C 27.3 µM
COc1cccc(CNCCc2c[nH]c3ccccc23)c1OCc1ccc(F)cc1 20 µM
CC1CCN(Cc2c(C(=O)N/N=C/c3ccccc3O)nnn2-c2nonc2N)CC1 3.16 µM
COC1=CC(=O)c2ccccc2C1=O 28.2 µM

Potency, inactive:
CCS(=O)(=O)N1CCC(C(=O)N2CCc3ccccc3C2)CC1
CSCCC(C(=O)Nc1c(C)cccc1C)N1CCC(Cc2ccccc2)CC1 (centres undefined)
CCOc1ccc2ncc3c(-c4ccc(C)cc4)nn(-c4cccc(F)c4)c3c2c1
CC(C)C(NC(=O)c1ccc(C(C)(C)C)cc1)C(=O)Nc1cccc(S(N)(=O)=O)c1 (centres undefined)
COc1ccc(C(=O)c2oc3ccccc3c2NC(=O)c2cc(=O)c3ccc(C)cc3o2)cc1Cl
C=CCn1c(O)c(N=NC(=O)OCC)c2ccccc21
CCOc1ccc(CN2CCN(Cc3[nH]c4ccc(OC)cc4c3C)CC2CCO)cc1 (centres undefined)
N#Cc1c(SCc2ccccc2)sc(C(=O)c2ccccc2)c1N
CC(=O)Nc1ccc(-c2cc(NC(C)=O)n(-c3ccccc3)n2)cc1
COCCc1ccccn1
COc1ccc(OC)c(-n2c(-c3cccc(S(=O)(=O)N(C)C)c3)n[nH]c2=S)c1
Cc1cc(NC(=O)CCNS(=O)(=O)c2cc(Br)cnc2N)ccc1Br
CCN1C(=O)C(CC(=O)Nc2ccccc2Cl)N(NC(=O)c2cccc(F)c2)C1=S (centres undefined)
COc1ccc(-n2c(=S)[nH]c3cc(C(=O)N4CCN(c5ccccc5)CC4)ccc3c2=O)cc1
CCN1CCN(c2csc3ccc(Br)cc3c2=O)CC1

Potency, inconclusive:
CC(C1CC1)N(Cc1ccccc1)C(=S)Nc1cccc(C(F)(F)F)c1 (centres undefined) 21.2 µM [inhibitor, partial curve, poor fit]
O=C(Nc1ccccc1F)C1CCCN(S(=O)(=O)c2ccccc2)C1 (centres undefined) 7.52 µM [inhibitor, full curve, poor fit]
CC(=O)c1c(C)c2cnc(Nc3ccc(N4CCNCC4)cn3)nc2n(C2CCCC2)c1=O 27.3 µM [inhibitor, single point]
CSc1nc2nc3c(cc2c(=O)n1-c1ccccc1C)CCCC3 39.8 µM [inhibitor, partial curve]
CCCN1CCN(CCCNC(=O)c2cc3c(=O)n(CC)c4ccccc4c3s2)CC1 31.6 µM [inhibitor, single point]
CCOc1cccc(C(=O)Nc2ccc(-c3nc4ncccc4o3)cc2C)c1 39.8 µM [inhibitor, single point]
O=C1c2ccc(Cl)cc2S(=O)(=O)c2cccc(C(=O)N3CCN(c4ncc(Br)cn4)CC3)c21 35.5 µM [inhibitor, single point]
O=c1[nH]c(=O)n(CCc2ccc(F)cc2)c(O)c1C=NCc1ccc2c(c1)OCO2 25.1 µM [inhibitor, partial curve, poor fit]
CCCN(CC(=O)Nc1cccc(Br)c1)CC(=O)Nc1ccc(F)c(F)c1F 25.1 µM [inhibitor, partial curve, poor fit]
O=C(NNC(=O)c1cnccn1)c1ccc(Cl)c(Cl)c1 15.8 µM [inhibitor, partial curve]
Brc1ccc(-c2nc(-c3ccccn3)no2)o1 14.1 µM [inhibitor, single point]
Cc1cc(C(=O)N/N=C/c2ccc([N+](=O)[O-])cc2)c2ccccc2n1 16.8 µM [inhibitor, partial curve]
CCCn1c(N)c(C(=O)CSc2nc3ccccc3c(=O)n2Cc2ccccc2)c(=O)[nH]c1=O 33.6 µM [inhibitor, single point]
Cc1ccc(-n2c(SCc3ccccc3F)nc3[nH]ncc3c2=O)cc1Cl 35.5 µM [inhibitor, single point]
O=C(Nc1nnc(-c2ccccc2Cl)o1)c1ccc(S(=O)(=O)N2CCCCCC2)cc1 14.1 µM [inhibitor, partial curve]
O=S(=O)(NCC(c1ccccc1)N1CCNCC1)c1ccc(Cl)cc1 (centres undefined) 28.2 µM [inhibitor, single point]
C=CCOC(=O)C1=C[C@@H](c2ccc3c(c2)OCO3)C[C@@H](OCCCCO)O1 7.94 µM [inhibitor, partial curve, poor fit]
CCN(CC)CCNC(=O)CCc1c(C)nc2c(c(C)nn2-c2ccc(C)cc2)c1C 35.5 µM [inhibitor, single point]
Cc1occc1C(=O)O/N=C(\N)c1ccccc1 31.6 µM [inhibitor, single point]
Oc1ccc(/C=N/N=C(c2ccccc2)c2ccccc2)c(O)c1O 20 µM [inhibitor, single point]
COC(=O)c1ccc(COc2cccn3c(N(C)C(=O)CCC4CCCC4)c(C)nc23)cc1 28.2 µM [inhibitor, single point]
CC(=O)[C@@]1(O)C(C)CC2C3C=C(C)C4=Cc5c(cnn5-c5ccccc5)C[C@]4(C)C3C(O)C[C@@]21C (some centres undefined) 39.8 µM [inhibitor, single point]
CCCNC(=O)Nc1ccc(Oc2ncnc3cc(OC)c(OC)cc23)cc1Cl 34.3 µM [inhibitor, single point]
O=c1c2ccccc2nc(N/N=C/c2c(O)ccc3ccccc23)n1O 14.1 µM [inhibitor, partial curve]
